{"source": "PubChem BioAssay AID1460", "about": "(National Center for Advancing Translational Sciences (NCATS), 2008)", "note": "“And” between values parts separate entries of the source, which are not always exact repeats. Equal entries are not always repeated. The campaign covered roughly 270,000 compounds. About 5,800 (2.1%) were called active. The shares of active, inactive and inconclusive entries below differ from those in the screen. The call rests on the fitted dose curve; in most records, active means well fitted inhibition curve with a large enough effect; inconclusive means small, poorly fitted or top-dose-only effect; inactive means flat fitted curve, though single readings scatter. Where the call is inconclusive, the potency comes from a doubtful curve fit. On the % scale 0 is the no-effect control and ±100 the full control effect; potency means the concentration at half of the fitted maximal effect; tags describe the fitted curve by direction and shape.", "data": [{"molecular_target": "Microtubule-associated protein tau (Homo sapiens) (UniProt P10636)", "sequence (P10636 whole entry, looked up, the tested form may be a part)": "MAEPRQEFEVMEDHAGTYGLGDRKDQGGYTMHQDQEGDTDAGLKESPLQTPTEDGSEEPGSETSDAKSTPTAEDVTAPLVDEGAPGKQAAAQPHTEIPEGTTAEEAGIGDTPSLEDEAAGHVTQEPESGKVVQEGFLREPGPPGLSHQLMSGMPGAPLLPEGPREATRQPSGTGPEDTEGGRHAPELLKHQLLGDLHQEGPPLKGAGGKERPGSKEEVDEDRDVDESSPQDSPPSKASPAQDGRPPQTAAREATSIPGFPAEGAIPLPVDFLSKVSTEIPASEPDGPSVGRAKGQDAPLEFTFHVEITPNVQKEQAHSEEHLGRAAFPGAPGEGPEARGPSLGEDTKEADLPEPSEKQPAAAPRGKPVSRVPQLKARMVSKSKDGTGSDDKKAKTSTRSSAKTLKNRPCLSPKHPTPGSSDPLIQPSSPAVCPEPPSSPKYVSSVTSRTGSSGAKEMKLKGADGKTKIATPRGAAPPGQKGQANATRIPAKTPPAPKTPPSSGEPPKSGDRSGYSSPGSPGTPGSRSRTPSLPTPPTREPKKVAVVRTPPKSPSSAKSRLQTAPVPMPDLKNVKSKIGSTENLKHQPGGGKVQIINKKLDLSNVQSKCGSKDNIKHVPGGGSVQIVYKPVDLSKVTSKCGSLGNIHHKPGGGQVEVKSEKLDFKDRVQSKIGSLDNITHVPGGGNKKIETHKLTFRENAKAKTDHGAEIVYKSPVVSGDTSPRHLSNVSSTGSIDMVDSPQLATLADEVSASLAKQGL", "test": "qHTS for Inhibitors of Tau Fibril Formation, Thioflavin T Binding; further: nearly all actives have a fitted effect of over 55% in size", "settings": "recombinant tau K18 P301L (four-repeat tau fragment), heparin-induced fibrillization, ThT fluorescence; series mostly up to 57.4 µM; activity, negative = inhibition: at the top concentration", "method_in_brief": "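In this qHTS, human K18 P301L tau is incubated with compound and heparin for 6 hr at 37 C, and Thioflavin T fluorescence then reports fibril load.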", "values": [{"compound": "O=C(c1ccccc1)N1CCN(C(=O)c2ccc([N+](=O)[O-])cc2)CC1", "activity, negative = inhibition": "inactive: 1.69%"}, {"compound": "Cn1cccc1/C=C1\\SC(=S)N(Nc2ccccc2)C1=O", "Potency": "active: 3.55 µM"}, {"compound": "O=C(N/N=C/C=C/c1ccccc1)c1ccccn1", "Potency": "inconclusive: 25.1 µM [inhibitor, partial curve]"}, {"compound": "CC1C(=O)Nc2ccccc2N1C(=O)C1CC1", "note": "(centres undefined)", "activity, negative = inhibition": "inactive: -12%"}, {"compound": "Cc1ccc(S(=O)(=O)NCCC(=O)Nc2ccc(Cl)c(Cl)c2)cc1C", "activity, negative = inhibition": "inactive: 7.54%"}, {"compound": "CCCS(=O)(=O)c1ncc(Cl)c(C(=O)N2CCN(c3ccc(OC)cc3)CC2)n1", "Potency": "inconclusive: 5.01 µM [inhibitor, full curve]"}, {"compound": "CC1CCN(c2ccc(NC(=O)c3cccc(Cl)c3)cc2C(=O)O)CC1", "Potency": "inconclusive: 0.355 µM [activator, full curve, poor fit]"}, {"compound": "Cc1ccc(C(=O)OC/C(O)=C(\\C#N)c2nc3ccccc3[nH]2)cc1S(=O)(=O)N1CCOCC1", "activity, negative = inhibition": "inactive: -0.893%"}, {"compound": "O=C(NC(=S)NNS(=O)(=O)c1ccccc1)c1cccnc1", "activity, negative = inhibition": "inactive: -18.4%"}, {"compound": "COc1cc(OC)cc(C(=O)Nc2ccc(-c3nc4ccccc4o3)c(O)c2)c1", "Potency": "inconclusive: 39.8 µM [activator, single point]"}, {"compound": "CCOC(=O)C(=O)C1=C(N2CCOCC2)/C(=C\\c2ccc(F)cc2)CC1", "Potency": "inconclusive: 17.8 µM [inhibitor, partial curve]"}, {"compound": "COc1ccc(C(=O)/C=C/c2ccccc2C(F)(F)F)cc1", "Potency": "inconclusive: 20 µM [inhibitor, partial curve]"}, {"compound": "COCCN(C(=O)c1ccco1)C(C(=O)NC1CCCC1)c1cccs1", "note": "(centres undefined)", "activity, negative = inhibition": "inactive: -3.33%"}, {"compound": "Cn1cc(/C=N/NC(N)=S)c2ccccc21", "Potency": "inconclusive: 17.8 µM [inhibitor, partial curve]"}, {"compound": "COc1ccc(C2C(C(=O)Nc3cccc(C)n3)c3ccccc3C(=O)N2C)cc1", "note": "(centres undefined)", "Potency": "inconclusive: 35.5 µM [inhibitor, partial curve]"}, {"compound": "O=[N+]([O-])c1cccc(NC(=S)N2CCc3ccccc3C2)c1", "Potency": "inconclusive: 20 µM [inhibitor, single point]"}, {"compound": "Cc1cc(OCC(=O)N(C)C)c2c(-c3ccccc3)cc(=O)oc2c1", "activity, negative = inhibition": "inactive: -10.4%"}, {"compound": "N#C/C(=C\\c1ccc(Oc2ccc(C(F)(F)F)cc2[N+](=O)[O-])cc1)c1nc2ccccc2[nH]1", "Potency": "inconclusive: 6.31 µM [inhibitor, partial curve]"}, {"compound": "Cc1cccc(NC(=O)c2ccc(C(=O)Nc3cccc(C)c3C)cc2)c1C", "activity, negative = inhibition": "inactive: -5.93%"}, {"compound": "Cc1ccc(Nc2c(-c3ccc(C)o3)nc3ncccn23)cc1", "Potency": "inconclusive: 39.8 µM [inhibitor, single point]"}, {"compound": "COc1ccc(NC(=O)NS(=O)(=O)c2ccc(C)cc2)c(OC)c1", "Potency": "inconclusive: 17.8 µM [inhibitor, partial curve]"}, {"compound": "Cc1occc(=O)c1OC(=O)Nc1ccc(Cl)c(Cl)c1", "Potency": "inconclusive: 31.6 µM [activator, partial curve]"}, {"compound": "CC(C)C(=O)N1CCN(c2ccc(NC(=O)c3ccc4c(c3)OCCO4)cc2)CC1", "Potency": "inconclusive: 1.12 µM [inhibitor, full curve]"}, {"compound": "CCn1c(SCC(=O)c2ccc(Cl)cc2)nnc1-c1ccoc1C", "Potency": "inconclusive: 31.6 µM [inhibitor, single point]"}, {"compound": "Cc1ccc(C)c(N2CCN(CCCNC(=O)C3COc4ccccc4C3)CC2)c1", "note": "(centres undefined)", "activity, negative = inhibition": "inactive: -2.49%"}, {"compound": "Cc1ccc(NC(=O)CSc2nc3ccccc3c3nc(CCn4cncc4C)nn23)cc1F", "Potency": "inconclusive: 39.8 µM [inhibitor, single point]"}, {"compound": "CCOc1cccc2sc(N(Cc3cccnc3)C(=O)C3CCCCC3)nc12", "Potency": "inconclusive: 15.8 µM [inhibitor, single point]"}, {"compound": "O=C(Nc1cccnc1Cl)c1ccc(S(=O)(=O)N2CCCCCC2)cc1", "activity, negative = inhibition": "inactive: 0.718%"}, {"compound": "Cc1ccc(NC(=O)CSCc2cnn(-c3ccccc3)c2-n2cccc2)c(C)c1", "Potency": "inconclusive: 20 µM [inhibitor, partial curve, poor fit]"}, {"compound": "COc1ccc(NC(=O)/C(=C/c2ccc3c(c2)OCO3)NC(C)=O)cc1", "activity, negative = inhibition": "inactive: 9.27%"}, {"compound": "COc1cc2nc(CN3CCN(C(c4ccccc4)c4ccccc4)CC3)[nH]c(=O)c2cc1OC", "Potency": "inconclusive: 44.7 µM [inhibitor, single point]"}, {"compound": "Cc1cccc(NC(=O)Cn2c(=O)n3nc(CCn4nc(C)cc4C)nc3c3ccccc32)c1", "activity, negative = inhibition": "inactive: -21.3%"}, {"compound": "COc1ccc(CN(C2CCCC2)S(=O)(=O)c2ccc(-n3cnnn3)cc2)cc1OC", "activity, negative = inhibition": "inactive: -11.4%"}, {"compound": "COc1ccc(NC(=O)C2CCCN(C(=O)c3cnn(-c4ccc(F)cc4)c3-n3cccc3)C2)cc1", "note": "(centres undefined)", "activity, negative = inhibition": "inactive: -2.22%"}, {"compound": "CCOC(=O)N1CCC(n2c(SCC(=O)NCc3ccco3)nc3ccsc3c2=O)CC1", "Potency": "inconclusive: 39.8 µM [inhibitor, single point]"}, {"compound": "O=C(Cn1cc[n+](Cc2ccccc2)c1)c1ccc([N+](=O)[O-])cc1", "Potency": "inconclusive: 11.2 µM [inhibitor, partial curve]"}, {"compound": "CC12CCC(C/C1=N\\N=C1\\NC(=O)/C(=C\\c3ccc(Cl)cc3)S1)C2(C)C", "note": "(centres undefined)", "Potency": "inconclusive: 14.1 µM [inhibitor, partial curve]"}, {"compound": "Cc1ccc(Nc2nnc(-c3cc4c(ccc5ccccc54)oc3=O)s2)cc1", "Potency": "inconclusive: 10 µM [inhibitor, partial curve]"}, {"compound": "COc1ccc(CCNC(=O)CCc2c(C)nc3cc(-c4ccccc4OC)nn3c2C)c(OC)c1", "Potency": "inconclusive: 31.6 µM [inhibitor, single point]"}, {"compound": "CC(=O)NCCNc1nc(-c2ccc(N(C)C)cc2)nc2ccccc12", "Potency": "inconclusive: 15.8 µM [inhibitor, partial curve]"}, {"compound": "COc1ccccc1NC(=O)CSc1nnc2c3ccccc3n(C(C)C)c2n1", "Potency": "inconclusive: 11.2 µM [inhibitor, partial curve]"}, {"compound": "CCCCCCCC/C=C\\CCCCCCCC(=O)NCCO", "Potency": "inconclusive: 39.8 µM [inhibitor, single point] and inconclusive: 25.1 µM [inhibitor, partial curve] and inconclusive: 31.6 µM [inhibitor, partial curve]"}, {"compound": "O=C1SC(c2ccccc2)=C/C1=C\\N1CCCCC1", "Potency": "inconclusive: 28.2 µM [inhibitor, single point]"}, {"compound": "CNc1nnc(-c2ccc(N(C)C)cc2)s1", "Potency": "inconclusive: 3.98 µM [inhibitor, partial curve]"}, {"compound": "CCCOc1ccc(C(=O)CCN2CCN(C(=O)OCC)CC2)cc1", "Potency": "inconclusive: 3.55 µM [inhibitor, partial curve]"}, {"compound": "Cc1cccc(-c2nc3scc(CCNC(=O)c4ccc(Br)o4)n3n2)c1", "activity, negative = inhibition": "inactive: -14.2%"}, {"compound": "Cc1ccc(N2C(=O)[C@@H]3[C@H](C2=O)[C@H]2C=CC=NN2[C@@H]3C(=O)Nc2ccccc2)cc1", "activity, negative = inhibition": "inactive: -13%"}, {"compound": "O=C(/C=C/c1ccccc1)n1cnnc1SC/C=C/c1ccccc1", "Potency": "active: 28.2 µM"}, {"compound": "Clc1cccc(N/N=C/c2ccc(N3CCOCC3)s2)c1", "Potency": "active: 12.6 µM"}, {"compound": "O=C(O)CC(C(=O)O)N1C(=O)/C(=C/C=C/c2ccco2)SC1=S", "note": "(centres undefined)", "Potency": "active: 12.6 µM"}, {"compound": "Cc1ccc(S(=O)(=O)Oc2ccc(/C=N/NC(=O)c3nn(C)cc3Cl)cc2)cc1", "Potency": "inconclusive: 10 µM [inhibitor, partial curve, poor fit]"}, {"compound": "CCN(CC)Cc1oc(-c2ccccc2)cc1C(=O)O", "activity, negative = inhibition": "inactive: -14.5%"}, {"compound": "Cc1ccc(CNC(=O)CNC(=S)N(Cc2ccccc2)Cc2cccnc2)cc1", "activity, negative = inhibition": "inactive: -18.9%"}, {"compound": "Cc1ccc2[nH]c3c(c2c1)CN(C(=O)CN1CCCc2ccccc21)CC3", "Potency": "inconclusive: 25.1 µM [inhibitor, single point]"}, {"compound": "CC(=O)c1ccc2c(c1)Nc1ccccc1S2", "Potency": "inconclusive: 2.51 µM [inhibitor, full curve]"}, {"compound": "Cc1ccc(CNc2ncnc3c2nc2n3CCCC2)cc1", "activity, negative = inhibition": "inactive: 3.25%"}, {"compound": "Cc1[nH]nc(SCC(=O)N2CCCCCC2)c1[N+](=O)[O-]", "Potency": "inconclusive: 11.2 µM [inhibitor, partial curve]"}, {"compound": "Cc1[nH]n(-c2ccccc2)c(=O)c1N=Nc1ccccc1O", "Potency": "inconclusive: 3.16 µM [inhibitor, full curve]"}, {"compound": "Cc1ccc(C2NC(=O)c3c(sc4c3CCN(C)C4)N2)o1", "note": "(centres undefined)", "Potency": "inconclusive: 28.2 µM [inhibitor, partial curve]"}, {"compound": "COc1cc2c3nnc(-c4ccc(F)cc4)c-3cn(Cc3ccccc3F)c2cc1OC", "Potency": "inconclusive: 15.8 µM [inhibitor, partial curve, poor fit]"}, {"compound": "Cc1ccccc1OCc1nc(-c2ccc(-n3cccc3)cc2)no1", "Potency": "inconclusive: 0.631 µM [inhibitor, full curve]"}, {"compound": "COC(=O)c1c[nH]n2c(=O)cc(CCl)nc12", "Potency": "inconclusive: 28.2 µM [inhibitor, partial curve]"}, {"compound": "CCN(CC)CCN1C(=O)C(=O)/C(=C(/O)c2c(C)[nH]c(C(=O)OC)c2C)C1c1ccc(C)o1", "note": "(centres undefined)", "Potency": "inconclusive: 6.31 µM [inhibitor, partial curve]"}, {"compound": "O=C(NC(=S)N1CCN(c2ccc([N+](=O)[O-])cc2)CC1)c1ccccc1F", "Potency": "inconclusive: 15.8 µM [inhibitor, partial curve]"}, {"compound": "COc1ccc(/C=C(/C#N)c2nc(-c3ccc(-c4ccccc4)cc3)cs2)cc1OC", "Potency": "inconclusive: 1.26 µM [inhibitor, full curve]"}, {"compound": "S=C(NCC1CCCO1)Nc1cccc(Cl)c1", "note": "(centres undefined)", "activity, negative = inhibition": "inactive: 6.92%"}, {"compound": "CC(C)=C1SC(N2CCN(c3cccc(C(F)(F)F)c3)CC2)=NC1=O", "Potency": "inconclusive: 17.8 µM [inhibitor, partial curve, poor fit]"}, {"compound": "CN(C)c1ccc(-c2nc(N3CCNCC3)c3ccccc3n2)cc1", "Potency": "active: 14.1 µM"}, {"compound": "COc1ccc(-c2c(C)nn3c(N4CCN(c5ccccc5)CC4)cc(C)nc23)cc1OC", "Potency": "inconclusive: 28.2 µM [inhibitor, partial curve]"}]}]}
